{"source": "PubChem BioAssay AID686970", "about": "(National Center for Advancing Translational Sciences (NCATS), 2013)", "note": "Screen size: about 360,000 compounds; about 6,000 (1.7%) were called active. The inconclusive results got no clear call from the source; some entries with a clear call stand among them for comparison. Calls come from the whole dose curve; as a rule, active = well fitted cell-killing curve with a large enough effect; inconclusive = small, poorly fitted or top-dose-only effect, or effect the other way; inactive = flat fitted curve, though single readings scatter. Potencies of inconclusive entries are left out as doubtful fits. Potency is the fitted concentration of half-maximal effect; tags give direction and shape of the fitted curve."}
{"assay": "qHTS for induction of synthetic lethality in tumor cells producing 2HG: qHTS for the HT-1080-NT fibrosarcoma cell line;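 note: NT is the 2HG producing partner of a matched IDH1 knockdown line; nearly all actives have a fitted effect of over 55% in size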;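 for activity, negative = less viability: 0% = DMSO-treated cells and -100% = media-only wells without cells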", "details": "HT-1080-NT fibrosarcoma viability, CellTiter-Glo ATP luminescence, 48 h; activity, negative = less viability: at 46.1 µM (top of the series) unless noted", "summary_of_the_method": "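Toxicity toward the 2HG-producing NT line was scored as %Activity, normalised to DMSO and no-cell wells, from CellTiter-Glo luminescence after 48 hours' treatment.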"}
{"smiles": "COC(=O)C1=C(Nc2ccc(C)cc2)C=C(C)C(C(=O)OC)C1c1ccc(OC)cc1", "note": "(stereo not drawn)", "Potency": "inconclusive [cytotoxic, single point]"}
{"smiles": "CCO[C@@H]1OC(C(=O)N2CCN(Cc3ccccc3)CC2)=C[C@H](c2csc3ccccc23)[C@H]1CCCO", "Potency": "inconclusive [cytotoxic, single point]"}
{"smiles": "C/C(=N\\NC(=O)c1c(Br)c(C)nn1C)c1cccc(NC(=O)C2CCC2)c1", "activity, negative = less viability": "inactive: 14.9%"}
{"smiles": "Cc1nc(-c2ccc(F)cc2)c(CC(=O)N(C)CC(=O)Nc2ccc(Cl)c(C(F)(F)F)c2)s1", "Potency": "inconclusive [cytotoxic, single point]"}
{"smiles": "COc1ccc(-c2nc3n(c(=O)c2C#N)CCS3)cc1", "activity, negative = less viability": "inactive: 13%"}
{"smiles": "O=C1C(=O)N(CNc2ccccn2)c2ccccc21", "Potency": "inconclusive [cytotoxic, single point]"}
{"smiles": "OCCC1CN(CC2CC2)CCN1Cc1ccc(F)c(F)c1", "note": "(stereo not drawn)", "activity, negative = less viability": "inactive: 5.55%"}
{"smiles": "Cc1ccnc(NC(=O)C2CCN(S(=O)(=O)c3ccc4c(c3)CC(C)N4C(=O)C3CCC3)CC2)c1", "note": "(stereo not drawn)", "activity, negative = less viability": "inactive: -21.2%"}
{"smiles": "CCCc1nc2c3ccccc3ccn2c1Cc1ccccc1C(F)(F)F", "Potency": "inconclusive [cytotoxic, single point]"}
{"smiles": "CC(C)CC(NS(=O)(=O)c1cc(C(=O)O)ccc1Cl)C(=O)O", "note": "(stereo not drawn)", "Potency": "inconclusive [rising, single point]"}
{"smiles": "COC(=O)c1cc(C(=O)N2CCN(c3cccc(Cl)c3)CC2)cc([N+](=O)[O-])c1", "Potency": "active: 0.517 µM"}
{"smiles": "COC(=O)Nc1nc(C)c(C(=O)c2ccccc2)s1", "Potency": "inconclusive [cytotoxic, single point]"}
{"smiles": "O=C(CCCn1c(SCc2cc(=O)n3cc(Cl)ccc3n2)nc2ccccc2c1=O)NCC1CCCO1", "note": "(stereo not drawn)", "activity, negative = less viability": "inactive: 0%"}
{"smiles": "CCOc1ncccc1C(=O)NNC(=O)c1cccc(S(=O)(=O)Nc2ccc(OC)cc2)c1", "activity, negative = less viability": "inactive: -3.95%"}
{"smiles": "CCc1nc2ccccc2c(C(=O)OCC(=O)N(CC(C)C)c2c(N)n(Cc3ccccc3)c(=O)[nH]c2=O)c1C", "Potency": "inconclusive [cytotoxic, single point]"}
{"smiles": "O=C(Nc1ccc(O)cc1)c1cccc(Oc2ccc([N+](=O)[O-])cc2)c1", "Potency": "inconclusive [cytotoxic, full curve]"}
{"smiles": "COc1ccc(/C(N)=N/OC(=O)c2c(-c3ccccc3Cl)noc2C)cc1OC", "Potency": "inconclusive [cytotoxic, single point]"}
{"smiles": "CCC(=O)NC(=S)Nc1ccc(-c2nc3ccccc3s2)cc1", "Potency": "inconclusive [rising, partial curve, poor fit]"}
{"smiles": "CSc1nnc2c3ccccc3n(Cc3ccccc3)c2n1", "activity, negative = less viability": "inactive: -2.38%"}
{"smiles": "CC(Sc1nnnn1C)C(=O)NC(=O)NC1CCCCC1", "note": "(stereo not drawn)", "Potency": "inconclusive [cytotoxic, single point]"}
{"smiles": "CCOC(=O)c1ccc(N2C(=O)C3C(C2=O)C(C(=O)c2ccc(Cl)cc2)N2CCCC32)cc1", "note": "(stereo not drawn)", "Potency": "inconclusive [cytotoxic, single point]"}
{"smiles": "CC(C(Sc1ccccc1N)c1ccccc1)[N+](=O)[O-]", "note": "(stereo not drawn)", "Potency": "inconclusive [cytotoxic, single point]"}
{"smiles": "CCOc1ccc(C(=O)O/N=C(\\N)c2ccccn2)cc1", "Potency": "inconclusive [cytotoxic, single point]"}
{"smiles": "COc1ccc(C(=O)NCc2cc(C)nc3ccccc23)cc1", "Potency": "inconclusive [cytotoxic, single point]"}
{"smiles": "C/C(=N\\NC(=O)c1cc(-c2ccncc2)nc2ccccc12)c1ccc(N2CCOCC2)cc1", "Potency": "active: 20.6 µM"}
{"smiles": "CCOc1ccc(Br)cc1C1C(C(=O)OC)=C(N)Oc2cc(N(C)C)ccc21", "note": "(stereo not drawn)", "Potency": "active: 11.6 µM"}
{"smiles": "O=C(c1ccccc1)C(C(=O)N1CCc2ccccc2C1)n1ccccc1=O", "note": "(stereo not drawn)", "Potency": "inconclusive [cytotoxic, single point]"}
{"smiles": "Cc1nc2ccccc2c2nc3ccccc3n12", "Potency": "inconclusive [cytotoxic, single point]"}
{"smiles": "CCOc1cccc(C(=O)Nc2ccc(NC(=O)c3ccccc3)c(C)c2)c1", "Potency": "inconclusive [cytotoxic, single point]"}
{"smiles": "COc1ccc(C(=O)NCc2cn3ccsc3n2)cc1OC", "activity, negative = less viability": "inactive: 1.4%"}
{"smiles": "CCC1=Nc2cc(C(=O)NCc3cccnc3)ccc2Sc2ccc(C)cc21", "Potency": "active: 2.31 µM"}
{"smiles": "Cc1ccc2oc(=O)c3cnn(CC(=O)N4CCN(c5ccccc5)CC4)c3c2c1", "activity, negative = less viability": "inactive: 7.56%"}
{"smiles": "CCN1C(=O)[C@H]2[C@@H](c3ccc(Cl)cc3)N3C(=O)CN(CCOC)C(=O)[C@@]3(Cc3ccccc3)[C@H]2C1=O", "activity, negative = less viability": "inactive: 2.93%"}
{"smiles": "Cc1cc(C(=O)N/N=C/c2cccnc2)c(C)o1", "activity, negative = less viability": "inactive: 13.3%"}
{"smiles": "CN1C(=O)[C@H]2[C@@H](C3CC3)N3C(=O)CN(Cc4ccccn4)C(=O)[C@@]3(Cc3ccccc3)[C@H]2C1=O", "activity, negative = less viability": "inconclusive: 30.1%"}
{"smiles": "N/C(=N\\OC(=O)CCCc1ccccc1)c1ccccc1", "Potency": "inconclusive [rising, single point]"}
{"smiles": "Cc1occc1-c1nnc(SCC(=O)Nc2nc(C(C)(C)C)cs2)o1", "Potency": "inconclusive [cytotoxic, single point]"}
{"smiles": "Cc1cc(/C=C(\\C#N)C(=O)NCc2ccco2)c(C)[nH]1", "activity, negative = less viability": "inconclusive: 33.1%"}
{"smiles": "Cc1ccccc1Cn1cccc1/C=C1/C(=N)N2C=CSC2=NC1=O", "Potency": "inconclusive [cytotoxic, single point]"}
{"smiles": "CC(Sc1nc(NCc2ccccc2)nc(N(C)C)n1)C(=O)Nc1ccccc1", "note": "(stereo not drawn)", "Potency": "inconclusive [cytotoxic, single point]"}
{"smiles": "COc1ccc(-c2ccc(C(=O)Nc3ccc(OC)nc3)c3occc23)c(C)c1", "Potency": "inconclusive [cytotoxic, single point]"}
{"smiles": "O=C(C1CCN(CCCc2ccccc2)CC1)N(CCc1ccccc1)Cc1ccccc1", "Potency": "inconclusive [cytotoxic, single point]"}
{"smiles": "Cc1ccc(S(=O)(=O)c2c(C)nn(C(C)(C)C)c2OC(=O)c2cccs2)cc1", "Potency": "active: 23.1 µM"}
{"smiles": "O=C(CN(C(=O)c1csnn1)c1cccc(Cl)c1)NC1CCCCC1", "activity, negative = less viability": "inactive: 8.83%"}
{"smiles": "COc1ccccc1Nc1nc(N)nc(CN2CC(C)CC(C)C2)n1", "note": "(stereo not drawn)", "Potency": "inconclusive [rising, single point]"}
{"smiles": "COC(=O)C(C)Sc1ccc2nnc(CCNS(=O)(=O)c3ccccc3)n2n1", "note": "(stereo not drawn)", "activity, negative = less viability": "inactive: 15.7%"}
{"smiles": "O=C(Nc1ccc2oc(-c3ccncc3)nc2c1)c1ccc([N+](=O)[O-])o1", "Potency": "active: 6.51 µM"}
{"smiles": "O=C(CN1C(=O)NC2(CCc3ccccc32)C1=O)c1ccc(F)cc1", "note": "(stereo not drawn)", "activity, negative = less viability": "inactive: -0.334%"}
{"smiles": "O=C(NCCOc1ccccc1)c1cc(C(=O)NCCOc2ccccc2)cc([N+](=O)[O-])c1", "activity, negative = less viability": "inactive: -0.0128%"}
{"smiles": "O=C(OCn1ncc(Br)c(Br)c1=O)c1ccccc1Cl", "Potency": "active: 8.2 µM"}
{"smiles": "CC(=O)O[C@H]1C(=O)[C@@]2(C)[C@H]([C@H](OC(=O)c3ccccc3)[C@]3(O)C[C@H](OC(=O)[C@H](O)C(NC(=O)c4ccccc4)c4ccccc4)C(C)=C1C3(C)C)[C@]1(OC(C)=O)CO[C@@H]1C[C@@H]2O", "note": "(stereo partly drawn)", "Potency": "inconclusive [cytotoxic, full curve, poor fit]"}
{"smiles": "COCCNc1nc(-c2cc3ccccc3o2)cs1", "activity, negative = less viability": "inactive: -1.84%"}
{"smiles": "Cc1nn(-c2cccc(Cl)c2)c2nc(C(F)(F)F)[nH]c(=O)c12", "Potency": "inconclusive [cytotoxic, single point]"}
{"smiles": "O=C(O)CSc1cc(NS(=O)(=O)c2ccc(Cl)cc2)c2ccccc2c1O", "Potency": "inconclusive [cytotoxic, single point]"}
{"smiles": "O=C1C2=C(NC(=S)NC2c2ccc(Cl)cc2)NC(c2ccc(Cl)cc2)N1c1ccc(Cl)cc1", "note": "(stereo not drawn)", "Potency": "inconclusive [cytotoxic, single point]"}
{"smiles": "O=C(Nc1cccnc1)c1cc(-c2ccc(Cl)c(Cl)c2)on1", "Potency": "inconclusive [rising, single point]"}
{"smiles": "Cc1ccc(S(=O)(=O)Nc2cccc(-c3ccc(N4CCCCCC4)nn3)c2)cc1", "Potency": "inconclusive [cytotoxic, single point]"}
{"smiles": "CCCCCCCNC(=O)C1(CC2CC(c3ccccc3)=NO2)CCNCC1", "note": "(stereo not drawn)", "Potency": "inconclusive [cytotoxic, single point]"}
{"smiles": "Cc1ccccc1-n1c(SCc2cccc(F)c2)nc2[nH]ncc2c1=O", "Potency": "inconclusive [cytotoxic, partial curve]"}
{"smiles": "O=C(CN1CCCN(S(=O)(=O)c2ccc(Br)s2)CC1)Nc1ccc(Cl)cc1", "Potency": "inconclusive [cytotoxic, single point]"}
{"smiles": "O=C(Nc1cccc(OC(F)(F)F)c1)C1Cc2c(-c3ccc(Cl)cc3)ccnc2O1", "note": "(stereo not drawn)", "Potency": "inconclusive [cytotoxic, single point]"}
{"smiles": "O=C(COc1ccccc1)Nc1cccc(-c2cn3cccnc3n2)c1", "activity, negative = less viability": "inactive: 8.23%"}
{"smiles": "Cc1ccc(C(NC(=O)C2CCN(CCOc3ccc(Cl)cc3Cl)CC2)c2ccccn2)cc1", "note": "(stereo not drawn)", "Potency": "inconclusive [cytotoxic, single point]"}
{"smiles": "c1ccc2c(c1)OCCOCCOCCO2", "Potency": "inconclusive [rising, single point]"}
{"smiles": "O=C(O)c1ccc(N/N=C/C2=Cc3ccccc3OC2)cc1", "Potency": "inconclusive [cytotoxic, single point]"}
{"smiles": "CCOC(=O)c1c(NC(=S)N2CCN(C)CC2)sc(C)c1-c1ccccc1", "Potency": "inconclusive [cytotoxic, single point]"}
{"smiles": "COc1ccc(Cn2c(=O)n(Cc3ccco3)c(=N)c3c4c(sc32)COC(C)(C)C4)cc1", "Potency": "inconclusive [cytotoxic, full curve, poor fit]"}
{"smiles": "Cc1ccnc(NC(=O)C23CC4CC(CC(C4)C2)C3)c1", "Potency": "inconclusive [cytotoxic, single point]"}
